According to publication PMC9911399, “Two distinct binding modes provide the RNA-binding protein RbFox with extraordinary sequence specificity”:
Where a chain is given by its changes, count along the chain named. The list shows a part of the results.

T1: RBFOX1 RRM (Homo sapiens, UniProt Q9NWB1 109-208)
T1 sequence: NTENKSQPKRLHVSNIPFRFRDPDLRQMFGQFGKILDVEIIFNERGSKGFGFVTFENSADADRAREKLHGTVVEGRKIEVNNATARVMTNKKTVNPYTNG

B1: CUCGGAG (DNA:RNA)
RNA: GGGAGACCGGAAUUCAGAUUGUCCCUCGGAGUUAAAUCCCGUCGUAGCCACCA
DNA 1: CAATCTGAATTCCGGTCTCCC
DNA 2: TGGTGGCTACGACGGGATT
B2: GAAAUUC (DNA:RNA)
RNA: GGGAGACCGGAAUUCAGAUUGUCCGAAAUUCUUAAAUCCCGUCGUAGCCACCA
DNA 1: CAATCTGAATTCCGGTCTCCC
DNA 2: TGGTGGCTACGACGGGATT
B3: UGAGAUC (DNA:RNA)
RNA: B2 RNA with G25U, A26G, A28G, U29A
DNA 1: CAATCTGAATTCCGGTCTCCC
DNA 2: TGGTGGCTACGACGGGATT
B4: CAGGCGA (DNA:RNA)
RNA: B1 RNA with U26A, C27G, G29C, A30G, G31A
DNA 1: CAATCTGAATTCCGGTCTCCC
DNA 2: TGGTGGCTACGACGGGATT
B5: CAUGUCG (DNA:RNA)
RNA: B1 RNA with U26A, C27U, G29U, A30C
DNA 1: CAATCTGAATTCCGGTCTCCC
DNA 2: TGGTGGCTACGACGGGATT
B6: UAAAUUC (DNA:RNA)
RNA: B2 RNA with G25U
DNA 1: CAATCTGAATTCCGGTCTCCC
DNA 2: TGGTGGCTACGACGGGATT
B7: GCGCCUU (DNA:RNA)
RNA: B2 RNA with A26C, A27G, A28C, U29C, C31U
DNA 1: CAATCTGAATTCCGGTCTCCC
DNA 2: TGGTGGCTACGACGGGATT
B8: UGUCGGA (DNA:RNA)
RNA: B1 RNA with C25U, U26G, C27U, G28C, A30G, G31A
DNA 1: CAATCTGAATTCCGGTCTCCC
DNA 2: TGGTGGCTACGACGGGATT
B9: CACGACA (DNA:RNA)
RNA: B1 RNA with U26A, G29A, A30C, G31A
DNA 1: CAATCTGAATTCCGGTCTCCC
DNA 2: TGGTGGCTACGACGGGATT
B10: GGGUACA (DNA:RNA)
RNA: B2 RNA with A26G, A27G, A28U, U29A, U30C, C31A
DNA 1: CAATCTGAATTCCGGTCTCCC
DNA 2: TGGTGGCTACGACGGGATT
B11: CCGGGGG (DNA:RNA)
RNA: B1 RNA with U26C, C27G, A30G
DNA 1: CAATCTGAATTCCGGTCTCCC
DNA 2: TGGTGGCTACGACGGGATT
B12: AGUCCUC (DNA:RNA)
RNA: B2 RNA with G25A, A26G, A27U, A28C, U29C
DNA 1: CAATCTGAATTCCGGTCTCCC
DNA 2: TGGTGGCTACGACGGGATT
B13: GGAGAAC (DNA:RNA)
RNA: B2 RNA with A26G, A28G, U29A, U30A
DNA 1: CAATCTGAATTCCGGTCTCCC
DNA 2: TGGTGGCTACGACGGGATT
B14: CACCUUG (DNA:RNA)
RNA: B1 RNA with U26A, G28C, G29U, A30U
DNA 1: CAATCTGAATTCCGGTCTCCC
DNA 2: TGGTGGCTACGACGGGATT
B15: UAUACUU (DNA:RNA)
RNA: B2 RNA with G25U, A27U, U29C, C31U
DNA 1: CAATCTGAATTCCGGTCTCCC
DNA 2: TGGTGGCTACGACGGGATT
B16: UAUGCGU (DNA:RNA)
RNA: B1 RNA with C25U, U26A, C27U, G29C, A30G, G31U
DNA 1: CAATCTGAATTCCGGTCTCCC
DNA 2: TGGTGGCTACGACGGGATT
B17: CUGGCGU (DNA:RNA)
RNA: B1 RNA with C27G, G29C, A30G, G31U
DNA 1: CAATCTGAATTCCGGTCTCCC
DNA 2: TGGTGGCTACGACGGGATT
B18: UGCAGGA (DNA:RNA)
RNA: B1 RNA with C25U, U26G, G28A, A30G, G31A
DNA 1: CAATCTGAATTCCGGTCTCCC
DNA 2: TGGTGGCTACGACGGGATT
B19: ACGUUUU (DNA:RNA)
RNA: B2 RNA with G25A, A26C, A27G, A28U, C31U
DNA 1: CAATCTGAATTCCGGTCTCCC
DNA 2: TGGTGGCTACGACGGGATT
B20: GUUUCUC (DNA:RNA)
RNA: B2 RNA with A26U, A27U, A28U, U29C
DNA 1: CAATCTGAATTCCGGTCTCCC
DNA 2: TGGTGGCTACGACGGGATT
B21: UCCGAAA (DNA:RNA)
RNA: B1 RNA with C25U, U26C, G29A, G31A
DNA 1: CAATCTGAATTCCGGTCTCCC
DNA 2: TGGTGGCTACGACGGGATT
B22: GGUGAAA (DNA:RNA)
RNA: B1 RNA with C25G, U26G, C27U, G29A, G31A
DNA 1: CAATCTGAATTCCGGTCTCCC
DNA 2: TGGTGGCTACGACGGGATT
B23: ACUCUCU (DNA:RNA)
RNA: B2 RNA with G25A, A26C, A27U, A28C, U30C, C31U
DNA 1: CAATCTGAATTCCGGTCTCCC
DNA 2: TGGTGGCTACGACGGGATT
B24: UCUUAUA (DNA:RNA)
RNA: B2 RNA with G25U, A26C, A27U, A28U, U29A, C31A
DNA 1: CAATCTGAATTCCGGTCTCCC
DNA 2: TGGTGGCTACGACGGGATT
B25: AAGAAAA (DNA:RNA)
RNA: B2 RNA with G25A, A27G, U29A, U30A, C31A
DNA 1: CAATCTGAATTCCGGTCTCCC
DNA 2: TGGTGGCTACGACGGGATT
B26: CCACGGG (DNA:RNA)
RNA: B1 RNA with U26C, C27A, G28C, A30G
DNA 1: CAATCTGAATTCCGGTCTCCC
DNA 2: TGGTGGCTACGACGGGATT
B27: CGAUCGC (DNA:RNA)
RNA: B2 RNA with G25C, A26G, A28U, U29C, U30G
DNA 1: CAATCTGAATTCCGGTCTCCC
DNA 2: TGGTGGCTACGACGGGATT
B28: CGAUAAG (DNA:RNA)
RNA: B1 RNA with U26G, C27A, G28U, G29A
DNA 1: CAATCTGAATTCCGGTCTCCC
DNA 2: TGGTGGCTACGACGGGATT
B29: GGAUGCA (DNA:RNA)
RNA: B2 RNA with A26G, A28U, U29G, U30C, C31A
DNA 1: CAATCTGAATTCCGGTCTCCC
DNA 2: TGGTGGCTACGACGGGATT
B30: ACUUUAA (DNA:RNA)
RNA: B1 RNA with C25A, U26C, C27U, G28U, G29U, G31A
DNA 1: CAATCTGAATTCCGGTCTCCC
DNA 2: TGGTGGCTACGACGGGATT
B31: GGUAUUU (DNA:RNA)
RNA: B2 RNA with A26G, A27U, C31U
DNA 1: CAATCTGAATTCCGGTCTCCC
DNA 2: TGGTGGCTACGACGGGATT

These binders were tested against T1, RBFOX1 RRM (assay: EMSA; HiTS-Eq, 1 nM pool, 10 min; buffer printed only for the single-RNA assays: 10 mM Tris pH 7.5, 150 mM NaCl, 3.4 mM EDTA, 0.001% NP-40, 30 C). Conditions: tags: His6 N-terminal (pET28a); label: 5' 32P.
Method in brief: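 A pool of RNA with 7 randomized nucleotides, 5′-radiolabelled and with DNA-annealed flanks, was equilibrated at 1 nM for 10 min in 50 µL with purified RbFox RRM, wild type or mutant, across increasing protein concentrations. Free RNA was separated by 8% native PAGE, excised, reverse-transcribed, barcoded by PCR and sequenced. Relative association constants were obtained from read-count changes of each RNA species versus the control reaction and normalised to the cognate motif.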
For B1, the binding signal was 0.00953 KA relative to UGCAUGU.
In the case of B2, the binding signal is reported as 0.00565 KA relative to UGCAUGU.
In the case of B3, the binding signal is reported as 0.0218 KA relative to UGCAUGU.
B4 was tested, and the binding signal was 0.0102 KA relative to UGCAUGU.
B5 was tested, and the binding signal was 0.00864 KA relative to UGCAUGU.
B6 was tested, and the binding signal was 0.0047 KA relative to UGCAUGU.
For B7, the binding signal was 0.0123 KA relative to UGCAUGU.
In the case of B8, the binding signal is reported as 0.00662 KA relative to UGCAUGU.
B9 was tested, and the binding signal was 0.00042 KA relative to UGCAUGU.
With B10 the binding signal was 0.0112 KA relative to UGCAUGU.
B11 was tested, and the binding signal was 0.00756 KA relative to UGCAUGU.
In the case of B12, the binding signal is reported as 0.0032 KA relative to UGCAUGU.
With B13 the binding signal was 0.0229 KA relative to UGCAUGU.
In the case of B14, the binding signal is reported as 0.00705 KA relative to UGCAUGU.
For B15, the binding signal was 0.00169 KA relative to UGCAUGU.
For B16, the binding signal was 0.0177 KA relative to UGCAUGU.
In the case of B17, the binding signal is reported as 0.0208 KA relative to UGCAUGU.
In the case of B18, the binding signal is reported as 0.0112 KA relative to UGCAUGU.
With B19 the binding signal was 0.00473 KA relative to UGCAUGU.
With B20 the binding signal was 0.0255 KA relative to UGCAUGU.
For B21, the binding signal was 0.00597 KA relative to UGCAUGU.
With B22 the binding signal was 0.00209 KA relative to UGCAUGU.
For B23, the binding signal was 0.0042 KA relative to UGCAUGU.
In the case of B24, the binding signal is reported as 0.00158 KA relative to UGCAUGU.
B25 was tested, and the binding signal was 0.00198 KA relative to UGCAUGU.
B26 was tested, and the binding signal was 0.00324 KA relative to UGCAUGU.
With B27 the binding signal was 0.0152 KA relative to UGCAUGU.
With B28 the binding signal was 0.0101 KA relative to UGCAUGU.
In the case of B29, the binding signal is reported as 0.0274 KA relative to UGCAUGU.
With B30 the binding signal was 0.00309 KA relative to UGCAUGU.
B31 was tested, and the binding signal was 0.00308 KA relative to UGCAUGU.
